Most values come without repeats; read them as rough.
Experiments:
CHO-K1 [1] = assay: relative survival (nuclei to bead ratio vs DMSO control) (% of vehicle control); higher = more surviving cells
Protocol: (§1)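 Flow-cytometric in vitro micronucleus assay (Litron MicroFlow) in CHO-K1 cells in 96-well plates, 19 concentrations (4.5-200 µM, n=1 per concentration). Without S9, cells were exposed for 24 h and sampled at 48 h. With Aroclor 1254-induced rat liver S9, cells were exposed for 3-4 h and sampled at 27-28 h. Read-outs are %MN and %hypodiploid nuclei relative to nucleated events, and relative survival as the nuclei-to-bead ratio versus the 1% DMSO vehicle control (x100).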

CHO-K1 [2] = assay: micronucleus frequency (% of nucleated events); higher = more micronuclei (genotoxic)
CHO-K1 [3] = assay: hypodiploid nuclei frequency (% of nucleated events); higher = more hypodiploid events (aneugenic)
Protocol: as §1
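Wherever hypodiploid nuclei frequency (% of nucleated events) is given: hypodiploid nuclei gated on a flow cytometer with 488 nm excitation after SYTOX Green staining, cultures at 37 °C, positive controls vinblastine without S9 and cyclophosphamide with S9.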
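Wherever micronucleus frequency (% of nucleated events) is given: cells lysed with nuclei stained by SYTOX Green, then micronucleus-gated events counted against nucleated events by flow cytometry with 488 nm excitation.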
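Wherever relative survival (nuclei to bead ratio vs DMSO control) is given: Lysed-cell nuclei stained with SYTOX Green and counted against counting beads by flow cytometry at 488 nm excitation, with vinblastine (no S9) and cyclophosphamide (plus S9) as positive controls.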

CCOCN(C(=O)CCl)c1c(C)cccc1CC [Acetochlor]
Settings	hypodiploid nuclei frequency, CHO-K1 [3] [%]	micronucleus frequency, CHO-K1 [2] [%]	relative survival, CHO-K1 [1]
concentration: 4.5 (µM), S9 metabolic activation: with S9, exposure time: 3-4 hours	0.1	1.04	107
concentration: 4.5 (µM), S9 metabolic activation: without S9, exposure time: 24 hours	0.62	1.74	96
concentration: 5.63 (µM), S9 metabolic activation: with S9, exposure time: 3-4 hours	0.32	1.16	90.6
concentration: 5.63 (µM), S9 metabolic activation: without S9, exposure time: 24 hours	0.82	2.22	117
concentration: 7.04 (µM), S9 metabolic activation: with S9, exposure time: 3-4 hours	0.22	1.38	81
concentration: 7.04 (µM), S9 metabolic activation: without S9, exposure time: 24 hours	0.82	2.26	101
concentration: 8.8 (µM), S9 metabolic activation: with S9, exposure time: 3-4 hours	0.22	1.42	87.9
concentration: 8.8 (µM), S9 metabolic activation: without S9, exposure time: 24 hours	0.84	2.58	110
concentration: 11 (µM), S9 metabolic activation: with S9, exposure time: 3-4 hours	0.18	1.8	82.5
concentration: 11 (µM), S9 metabolic activation: without S9, exposure time: 24 hours	0.74	1.76	92.7
concentration: 13.7 (µM), S9 metabolic activation: with S9, exposure time: 3-4 hours	0.26	1.76	94.7
concentration: 13.7 (µM), S9 metabolic activation: without S9, exposure time: 24 hours	0.52	1.98	91.1
concentration: 17.2 (µM), S9 metabolic activation: with S9, exposure time: 3-4 hours	0.24	1.82	94.2
concentration: 17.2 (µM), S9 metabolic activation: without S9, exposure time: 24 hours	0.7	2.56	108
concentration: 21.5 (µM), S9 metabolic activation: with S9, exposure time: 3-4 hours	0.24	1.54	89.7
concentration: 21.5 (µM), S9 metabolic activation: without S9, exposure time: 24 hours	0.74	2.04	97.4
concentration: 26.8 (µM), S9 metabolic activation: with S9, exposure time: 3-4 hours	0.36	1.2	108
concentration: 26.8 (µM), S9 metabolic activation: without S9, exposure time: 24 hours	0.84	2.46	112
concentration: 33.6 (µM), S9 metabolic activation: with S9, exposure time: 3-4 hours	0.28	1.08	109
concentration: 33.6 (µM), S9 metabolic activation: without S9, exposure time: 24 hours	0.92	2.78	96.9
concentration: 41.9 (µM), S9 metabolic activation: with S9, exposure time: 3-4 hours	0.38	2.38	123
concentration: 41.9 (µM), S9 metabolic activation: without S9, exposure time: 24 hours	0.72	2.34	108
concentration: 52.4 (µM), S9 metabolic activation: with S9, exposure time: 3-4 hours	0.28	1.54	94.7
concentration: 52.4 (µM), S9 metabolic activation: without S9, exposure time: 24 hours	0.76	2.96	88.5
concentration: 65.5 (µM), S9 metabolic activation: with S9, exposure time: 3-4 hours	0.32	1.76	77.3
concentration: 65.5 (µM), S9 metabolic activation: without S9, exposure time: 24 hours	0.62	1.94	101
concentration: 81.9 (µM), S9 metabolic activation: with S9, exposure time: 3-4 hours	0.22	1.58	82
concentration: 81.9 (µM), S9 metabolic activation: without S9, exposure time: 24 hours	0.68	3.84	102
concentration: 102 (µM), S9 metabolic activation: with S9, exposure time: 3-4 hours	0.2	2.56	69.5
concentration: 102 (µM), S9 metabolic activation: without S9, exposure time: 24 hours	1.34	2.82	76.2
concentration: 128 (µM), S9 metabolic activation: with S9, exposure time: 3-4 hours	0.2	3.15	44.2
concentration: 128 (µM), S9 metabolic activation: without S9, exposure time: 24 hours	1.24	3.76	67.3
concentration: 160 (µM), S9 metabolic activation: with S9, exposure time: 3-4 hours	0.28	4.25	41.5
concentration: 160 (µM), S9 metabolic activation: without S9, exposure time: 24 hours	–	–	21.7
concentration: 200 (µM), S9 metabolic activation: with S9, exposure time: 3-4 hours	–	–	24.6
concentration: 200 (µM), S9 metabolic activation: without S9, exposure time: 24 hours	–	–	0.25

O=c1[nH]c(=O)[nH]c(=O)[nH]1 [Cyanuric acid]
Settings	hypodiploid nuclei frequency, CHO-K1 [3] [%]	micronucleus frequency, CHO-K1 [2] [%]	relative survival, CHO-K1 [1]
concentration: 4.48 (µM), S9 metabolic activation: with S9, exposure time: 3-4 hours	0.34	1.78	155
concentration: 4.48 (µM), S9 metabolic activation: without S9, exposure time: 24 hours	0.34	1.06	108
concentration: 5.6 (µM), S9 metabolic activation: with S9, exposure time: 3-4 hours	0.16	1.88	152
concentration: 5.6 (µM), S9 metabolic activation: without S9, exposure time: 24 hours	0.68	1.16	106
concentration: 7 (µM), S9 metabolic activation: with S9, exposure time: 3-4 hours	0.38	1.52	135
concentration: 7 (µM), S9 metabolic activation: without S9, exposure time: 24 hours	0.58	1.46	105
concentration: 8.75 (µM), S9 metabolic activation: with S9, exposure time: 3-4 hours	0.22	1.2	112
concentration: 8.75 (µM), S9 metabolic activation: without S9, exposure time: 24 hours	0.6	1.6	102
concentration: 10.9 (µM), S9 metabolic activation: with S9, exposure time: 3-4 hours	0.18	1.58	159
concentration: 10.9 (µM), S9 metabolic activation: without S9, exposure time: 24 hours	0.42	1.22	99.5
concentration: 13.7 (µM), S9 metabolic activation: with S9, exposure time: 3-4 hours	0.2	1.98	124
concentration: 13.7 (µM), S9 metabolic activation: without S9, exposure time: 24 hours	0.6	1.32	118
concentration: 17.1 (µM), S9 metabolic activation: with S9, exposure time: 3-4 hours	0.3	2.7	114
concentration: 17.1 (µM), S9 metabolic activation: without S9, exposure time: 24 hours	0.68	1.4	115
concentration: 21.4 (µM), S9 metabolic activation: with S9, exposure time: 3-4 hours	0.28	1.98	92.9
concentration: 21.4 (µM), S9 metabolic activation: without S9, exposure time: 24 hours	0.46	1.5	105
concentration: 26.7 (µM), S9 metabolic activation: with S9, exposure time: 3-4 hours	0.26	1.32	171
concentration: 26.7 (µM), S9 metabolic activation: without S9, exposure time: 24 hours	0.66	1.14	102
concentration: 33.4 (µM), S9 metabolic activation: with S9, exposure time: 3-4 hours	0.18	1.58	167
concentration: 33.4 (µM), S9 metabolic activation: without S9, exposure time: 24 hours	0.6	1.3	98.5
concentration: 41.7 (µM), S9 metabolic activation: with S9, exposure time: 3-4 hours	0.26	2.04	194
concentration: 41.7 (µM), S9 metabolic activation: without S9, exposure time: 24 hours	0.6	1.68	99
concentration: 52.2 (µM), S9 metabolic activation: with S9, exposure time: 3-4 hours	0.14	1.66	134
concentration: 52.2 (µM), S9 metabolic activation: without S9, exposure time: 24 hours	0.54	2.32	100
concentration: 65.2 (µM), S9 metabolic activation: with S9, exposure time: 3-4 hours	0.22	1.86	148
concentration: 65.2 (µM), S9 metabolic activation: without S9, exposure time: 24 hours	0.7	1.7	97.6
concentration: 81.5 (µM), S9 metabolic activation: with S9, exposure time: 3-4 hours	0.16	1.36	128
concentration: 81.5 (µM), S9 metabolic activation: without S9, exposure time: 24 hours	1	2.34	97.1
concentration: 102 (µM), S9 metabolic activation: with S9, exposure time: 3-4 hours	0.2	2.14	131
concentration: 102 (µM), S9 metabolic activation: without S9, exposure time: 24 hours	0.5	1.76	117
concentration: 127 (µM), S9 metabolic activation: with S9, exposure time: 3-4 hours	0.28	2.4	130
concentration: 127 (µM), S9 metabolic activation: without S9, exposure time: 24 hours	0.68	2.18	96.2
concentration: 159 (µM), S9 metabolic activation: with S9, exposure time: 3-4 hours	0.28	1.58	149
concentration: 159 (µM), S9 metabolic activation: without S9, exposure time: 24 hours	0.88	2.46	90.8
concentration: 199 (µM), S9 metabolic activation: with S9, exposure time: 3-4 hours	0.32	2.14	136
concentration: 199 (µM), S9 metabolic activation: without S9, exposure time: 24 hours	0.78	2.42	93.7

Source: the supplement of paper PMC9151546
